# Measured values as given in the supplement of paper PMC12217912.
# Some of the results follow. The full chains were built here from the parent and the listed change. Inactive controls read about 0.05.
# B1: TEV protease; numbered along this chain (parent)
# chain: MGESLFKGPRDYNPISSSICHLTNESDGHTTSLYGIGFGPFIITNKHLFRRNNGTLVVQSLHGVFKVKDTTTLQQHLVDGRDMIIIRMPKDFPPFPQKLKFREPQREERICLVTTNFQTKSMSSMVSDTSCTFPSGDGIFWKHWIQTKDGQCGSPLVSTRDGFIVGIHSASNFTNTNNYFTSVPKNFMELLTNQEAQQWVSGWRLNADSVLWGGHKVFMVKPEEPFQPVKEATQL
# Variants of: B1
# Assay: raw area under fraction-flipped curve 0-4 h after induction (AUC4h, not background-subtracted), DNA-recorder readout of cleavage of the substrate (dimensionless); higher = more cleavage of the substrate by the protease variant
# Conditions: temperature: 34 °C; time window: 0-4 h after rhamnose induction
# Experimental: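 In vivo DNA recorder in E. coli TOP10(DE3) ΔrhaA at 34 °C. Each TEVp single-site mutant (parent TEVp 0) is paired with a single-site variant of the 7-mer TEVs (canonical ENLYFQ|S). The substrate sits between flexible linkers in a Bxb1-sfGFP-TEVs-SsrA fusion, so cleavage stabilises Bxb1 and speeds flipping of a recombination array, read by NGS. The value is the raw area under the fraction-flipped curve over 0-4 h after rhamnose induction (AUC4h), with ≥20 reads per time point. It is not background-subtracted; inactive controls average about 0.047.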
# 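Also: Bxb1 expression induced with 0.2% (w/v) L-rhamnose at OD600 near 0.5, cultures sampled hourly, flipped fraction per protease–substrate barcode pair counted by paired-end Illumina sequencing.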
Variant,area with substrate CNLYFQS,area with substrate DNLYFQS,area with substrate FNLYFQS,area with substrate GNLYFQS,area with substrate HNLYFQS,area with substrate LNLYFQS,area with substrate MNLYFQS,area with substrate NNLYFQS,area with substrate PNLYFQS,area with substrate QNLYFQS,area with substrate SNLYFQS,area with substrate TNLYFQS,area with substrate WNLYFQS,area with substrate YNLYFQS,area with substrate INLYFQS,area with substrate KNLYFQS,area with substrate RNLYFQS,area with substrate VNLYFQS
S32Q,0.0756,0.0878,0.046,0.0824,0.0566,0.0707,0.0156,0.0634,0.0639,0.0723,0.0721,0.056,0.0582,0.0704,–,–,–,–
S32R,0.0534,–,0.0548,0.0664,0.0655,0.0615,0.0722,0.0611,0.0684,0.0725,0.0649,0.0543,0.0393,0.0538,0.0733,0.0714,0.0643,–
P40D,0.0603,–,–,0.0675,0.0898,–,0.0846,–,0.0719,–,–,0.0449,–,0.0657,–,–,–,–
P40H,0.0833,–,–,–,0.0679,0.0596,0.0652,0.0682,0.068,–,–,0.0514,0.0627,0.0579,0.059,0.0681,0.0712,–
P40I,0.0828,–,–,–,0.065,0.063,0.0599,0.0568,0.054,–,0.0697,0.0577,0.068,0.0633,0.0642,0.0572,–,–
P40L,0.0584,–,0.046,0.0562,0.058,0.0736,0.0662,–,–,–,0.0661,0.0672,0.0623,0.0688,–,0.0613,–,0.0644
P40N,0.0488,0.075,–,0.0614,–,–,0.0667,–,0.0676,–,–,0.0744,–,–,–,0.0677,–,–
P40S,0.0765,0.0876,0.0653,0.047,0.0725,0.0286,–,0.0681,0.0673,–,0.0383,0.0619,0.0668,0.0647,0.0663,0.0652,0.0545,0.0707
L48A,0.0708,0.0623,0.0625,–,0.0436,0.0433,0.0631,0.0185,0.0693,–,0.063,0.0576,0.0591,0.061,–,0.0654,–,–
L48C,0.0649,0.0774,–,–,0.0549,0.0631,0.0587,–,–,–,–,0.0541,0.0654,0.042,0.0499,0.0493,0.0666,0.0723
L48E,0.0613,0.044,0.0594,0.0745,0.0545,0.0632,0.0594,–,0.0423,0.0525,0.0543,0.0627,0.0453,0.0621,–,0.0634,–,0.0447
L48I,0.065,0.0561,0.0526,0.0486,0.0584,0.0527,0.0693,–,–,–,–,0.0318,0.0623,0.0317,–,0.0486,–,–
L48Q,0.0571,–,–,–,0.0823,0.0551,0.0724,–,0.0546,–,0.0587,0.0487,0.0547,–,0.051,0.0634,0.0408,0.11
L56C,0.0459,0.0675,0.0465,0.0539,0.056,0.0568,0.0629,–,0.0573,–,–,0.0512,0.0526,–,–,0.0605,–,–
L56M,0.0683,–,–,0.0638,0.0722,0.067,0.0534,–,–,–,–,0.0611,0.0797,–,0.0708,0.0361,–,0.0697
L56Q,0.0332,–,0.0412,0.0547,0.0399,–,–,–,0.0501,–,–,0.0203,0.0328,–,–,–,–,–
L56T,0.0458,0.0705,–,0.0613,0.0592,0.0618,–,–,0.0611,0.0524,0.0543,0.071,0.0513,0.0584,0.0587,–,–,0.0124
L56Y,0.0489,0.0679,–,0.0697,0.0496,–,–,0.0471,0.0543,0.0416,–,–,0.0441,0.0536,0.0568,0.0656,–,0.0693
V64P,0.0681,0.0514,0.059,0.0782,0.0587,0.0622,–,0.0609,0.06,0.0739,0.0573,0.0677,0.0661,0.0345,–,–,–,–
V64Q,0.0829,0.0859,–,–,–,0.0581,0.0774,0.0672,0.0679,0.0479,0.0769,0.0651,0.0703,0.0523,0.0592,–,–,0.0544
V64R,0.0428,0.0798,–,–,0.0566,–,–,0.0602,0.063,0.0446,–,0.0619,–,–,–,–,–,–
T72N,0.0702,–,0.0572,0.0879,0.08,0.081,0.0724,0.0732,–,0.0547,0.0559,0.0537,0.0597,0.0548,0.0614,0.0698,0.0659,–
T72S,0.0826,0.0846,–,0.0614,0.0576,–,–,0.0833,–,0.0797,0.0718,0.0486,–,0.0572,–,0.107,–,–
G80K,0.0668,0.0418,0.059,0.0652,0.0603,0.0615,0.0613,–,0.0654,0.053,0.0621,0.0547,0.076,0.0483,0.0681,0.0766,–,–
G80P,0.0547,–,–,–,0.0621,0.0503,–,–,0.0541,0.0736,–,–,0.0589,0.022,–,–,0.0366,0.0523
M88D,0.0641,–,–,–,0.0532,–,–,–,–,–,0.0198,0.0254,0.0379,0.0527,–,–,–,–
M88Q,0.11,–,0.108,–,–,0.0616,0.0739,–,–,–,–,–,0.0516,–,–,0.0653,–,–
P96F,0.0681,–,–,0.0698,–,0.0642,0.0578,–,0.0614,–,0.0623,0.0668,0.0582,0.0446,–,0.0593,–,–
P96V,0.0653,0.0666,–,–,–,0.047,–,0.052,0.0614,–,0.0716,0.0571,0.0602,0.0585,0.0616,–,–,0.0585
P104L,0.0483,0.0514,0.0506,–,0.047,0.0633,0.054,0.0537,0.0524,0.0433,0.0541,0.0512,0.0588,0.0528,0.0526,0.0442,0.0596,0.0605
